The list shows a part of the results.

This note sets out measurements from PMC7819943, “Rice protein-binding microarrays: a tool to detect cis-acting elements near promoter regions in rice”.

This assay has as its target T1, OsWOX13 (Oryza sativa, UniProt Q5QMM3 1-267).
T1 sequence: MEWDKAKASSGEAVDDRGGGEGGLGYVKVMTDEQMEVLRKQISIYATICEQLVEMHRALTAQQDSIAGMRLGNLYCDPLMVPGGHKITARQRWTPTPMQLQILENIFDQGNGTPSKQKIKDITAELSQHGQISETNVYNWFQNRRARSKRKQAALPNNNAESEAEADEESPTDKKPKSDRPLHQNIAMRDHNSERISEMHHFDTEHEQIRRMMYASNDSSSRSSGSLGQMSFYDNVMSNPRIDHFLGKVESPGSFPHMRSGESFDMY
Put plainly: protein-binding microarray (RPBM); PBS, 2% BSA, 51.3 ng/ul salmon testes DNA, 50 uM zinc acetate, 200 nM TF, 25 C, 1 h; high values mean tight binding. Particulars: protein: recombinant; tags: N-terminal polyhistidine and DsRed monomer fusion (pET32a); label: CyDye5-dUTP incorporated in the synthesized complementary strand; 3' TTTTT single-stranded linker to array surface; dsDNA, one strand shown. In short, it runs like this: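 Binding signal here means per-feature fluorescence intensity in arbitrary units. The values were read on an Axon 4000B scanner after a custom Agilent array, double-stranded by primer extension with Cy5-dUTP, was incubated with 200 nM protein at 25 °C for 1 h in PBS with 2% BSA, salmon testes DNA and 50 µM zinc acetate, then washed. The proteins were transcription factors with an N-terminal polyhistidine tag and DsRed, expressed in E. coli BL21-CodonPlus and purified on Ni–NTA.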
In the case of “TTGGCTATTAATTTGGCTATAGATGATTTGGAGCTAGTAGCGGAGTCACCTAGTGCAG”, the binding signal was 6500 fluorescence intensity (a.u.). As to “ATCTCACTCTCCAATTTAAATTTTGGTAATTTTGAGCAAACGGAGTCACCTAGTGCAG”, the binding signal was 9640 fluorescence intensity (a.u.).

As to “AATAATTAATTGGATATGATGTACTCTATATTTCTTATATCGGAGTCACCTAGTGCAG”, the binding signal was 51400 fluorescence intensity (a.u.). “TACTTTCGTGATTATGATATTATATTAGAGTCGTTTAGAACGGAGTCACCTAGTGCAG”: the binding signal is 7640 fluorescence intensity (a.u.). For the sequence “AATTAAGTATGATTGTGCATTACGGGCACCTAAAGTTGTGCGGAGTCACCTAGTGCAG”, the binding signal was 6430 fluorescence intensity (a.u.). Next, “GCTATGATTTGACAATGTGATGGTACAGTAAACATTTGCTCGGAGTCACCTAGTGCAG”: 31400 fluorescence intensity (a.u.); “GATCAATCATCTTAAACTTTCATATTATCAGCTAGTAGATCGGAGTCACCTAGTGCAG”: 30900 fluorescence intensity (a.u.). Consider “TTAGATTGAACCGCTTCAAACCAGTGGTTCAACACTTTAACGGAGTCACCTAGTGCAG”, for which the binding signal was 27000 fluorescence intensity (a.u.). Turning to “AATGACAACTAATTTTAAGATGGAGGGAGTATGTTAGTATCGGAGTCACCTAGTGCAG”, the binding signal was 8570 fluorescence intensity (a.u.).

Turning to “GTGATTACGATCAGGCAGAGTGGTACACAGGTACTGTAGTCGGAGTCACCTAGTGCAG”, the binding signal was 4370 fluorescence intensity (a.u.). Consider “GTATCAGGCCATAATTAGTTCATTACCATACAATTACCATCGGAGTCACCTAGTGCAG”, for which the binding signal is 6390 fluorescence intensity (a.u.). As for “ATTAATCATCATTTATCTCATTCCGTTGTTAAAACCAAATCGGAGTCACCTAGTGCAG”, the binding signal was 3710 fluorescence intensity (a.u.).

Regarding “ATTATTGAACGAATGATTATCGTAGATTATACATCTAGCCCGGAGTCACCTAGTGCAG”, the binding signal was 28400 fluorescence intensity (a.u.). As to “TTGATTCCGATAAATTTAATTGGTTTATGTAAACTTAAGCCGGAGTCACCTAGTGCAG”, the binding signal was 32400 fluorescence intensity (a.u.). Next, “GTCTGAGTTAATTTATGCTTTTCTAATTACAATAGCATAACGGAGTCACCTAGTGCAG”: 13500 fluorescence intensity (a.u.); “AGTTTTGATAATCAAATTACATTTTATTTATACATACTTACGGAGTCACCTAGTGCAG”: 14400 fluorescence intensity (a.u.). Turning to “GAATTCAGGATGATTGAAAACGTTTGCACTTGAAACATTTCGGAGTCACCTAGTGCAG”, the binding signal was 18100 fluorescence intensity (a.u.). On to “GTAACAGAACCAGTGATCTGATAGACAGATATCCAGCAGACGGAGTCACCTAGTGCAG”, for which the binding signal is 5870 fluorescence intensity (a.u.). Turning to “AATTAATCAATGCGCTAATTACTTATCTTGTTATAGCTGACGGAGTCACCTAGTGCAG”, the binding signal is 48800 fluorescence intensity (a.u.). As to “ATTTAACAATGGATTAATTAGACTTAATAAATCCATCTCGCGGAGTCACCTAGTGCAG”, the binding signal was 18700 fluorescence intensity (a.u.). For the sequence “ACCAACTATTGCGCTGATTGATTAGTCGTGTGCTTGTTTGCGGAGTCACCTAGTGCAG”, the binding signal was 51300 fluorescence intensity (a.u.). Turning to “TATAAATTTTAGCTATTTATAAATTGTATTCCTAGTTGAACGGAGTCACCTAGTGCAG”, the binding signal was 6440 fluorescence intensity (a.u.). Consider “GTCATTGATTGATCAAGGGATCAATGCAAAACAACGCATTCGGAGTCACCTAGTGCAG”, for which the binding signal was 20300 fluorescence intensity (a.u.).

With “CACCCAATTATCATCATCCTCAAATCAATTGAAAACTTGCCGGAGTCACCTAGTGCAG”, the binding signal is 18100 fluorescence intensity (a.u.).

For “TTTGTATCAAATTGGAACTAGTAACCAATCCCAATTTAGACGGAGTCACCTAGTGCAG”, the binding signal is 3450 fluorescence intensity (a.u.). “CATCTCCAAATTGAACCAATCCCAGAAAATTAATCGGTCACGGAGTCACCTAGTGCAG”: the binding signal was 11400 fluorescence intensity (a.u.). To “AATAGATGGATGGATGGATGGATAGGTACTCCAGATAGATCGGAGTCACCTAGTGCAG” belongs 6110 fluorescence intensity (a.u.).

As to “CCATAGAGTCACTGATATAATTATATGAACAGATAGTGTCCGGAGTCACCTAGTGCAG”, the binding signal is 6940 fluorescence intensity (a.u.).

In the case of “GTGACAGTTAAATACTAAATGACCGGTGTTCGGAAAAGAACGGAGTCACCTAGTGCAG”, the binding signal was 3900 fluorescence intensity (a.u.). Consider “GTAATAATTAAAACTTAATTAATCATATGCTAATAGCTTTCGGAGTCACCTAGTGCAG”, for which the binding signal was 30300 fluorescence intensity (a.u.).

For the sequence “TTAATTGATAAACATGTAAGACTAAATTTGATATATAACTCGGAGTCACCTAGTGCAG”, the binding signal was 40000 fluorescence intensity (a.u.). As for “ACGATGATCATGACATACACGAATTGTGTGGTTAGAACTCCGGAGTCACCTAGTGCAG”, the binding signal was 3400 fluorescence intensity (a.u.).

On to “TTCGGAATTTTAATTAATATATTTTGGGTTGATGATGGAGCGGAGTCACCTAGTGCAG”, for which the binding signal was 18200 fluorescence intensity (a.u.). To “TTTTAATTCTTGCTCCTGATTGAATCGCATCCCTCGACCACGGAGTCACCTAGTGCAG” belongs 22200 fluorescence intensity (a.u.); to “GTTTAATTTATTTCACAAGTTTAAGTGTATATCATGTTAGCGGAGTCACCTAGTGCAG”, 31000 fluorescence intensity (a.u.). With “TCGCTTTGATTGACACTAAGAACCTCGCTGCGCATCTCGTCGGAGTCACCTAGTGCAG”, the binding signal is 58600 fluorescence intensity (a.u.). “AACAATGCTTCTCTAATTGGTATATGTCGAGCCTTTTGCTCGGAGTCACCTAGTGCAG”: the binding signal was 4060 fluorescence intensity (a.u.). Next, “TTTAATTCATTATATAATTTAAACGTAATTTGTGGTCACACGGAGTCACCTAGTGCAG”: 27400 fluorescence intensity (a.u.); “TCAAATTTGAGTTGAAAATTTTCAAATTTTAAGCTGAAAGCGGAGTCACCTAGTGCAG”: 4690 fluorescence intensity (a.u.).

“AAGATTGGGCTGTTCATTAATCAAATTATTCTATGTGTCTCGGAGTCACCTAGTGCAG”: the binding signal was 11900 fluorescence intensity (a.u.). Regarding “CTAACCACCCAATCAACAAAAGAGTACGTAAGGCCGTTGCCGGAGTCACCTAGTGCAG”, the binding signal is 5600 fluorescence intensity (a.u.). To “AATTAATCATTACTAACTTGTTTCATTTTACGTGGACTAACGGAGTCACCTAGTGCAG” belongs 5560 fluorescence intensity (a.u.); to “AAGAATAATTACTCGTAATTACGAGTATCCGTGTCAAGTCCGGAGTCACCTAGTGCAG”, 42000 fluorescence intensity (a.u.).

In the case of “CTTTGACTTGCACAAATTTGATGGCTTTATCAGTTTATTTCGGAGTCACCTAGTGCAG”, the binding signal was 9390 fluorescence intensity (a.u.). Next, “TCAATGGCATGATTACTAATAGAGGAATCGTAATTACATTCGGAGTCACCTAGTGCAG”: 7000 fluorescence intensity (a.u.); “GTGACATCATAATTTAGATTTAACTTATTCGTGCATATTACGGAGTCACCTAGTGCAG”: 9460 fluorescence intensity (a.u.); “TTCCTAGGATTTTGCATCTTGATTGATCACTAGTGCCATTCGGAGTCACCTAGTGCAG”: 18100 fluorescence intensity (a.u.). For “TCTCTGTGATTGAAACCTTGTCTCTGAAATGCTTGAGGGCCGGAGTCACCTAGTGCAG”, the binding signal is 55400 fluorescence intensity (a.u.).

Consider “TACTCGCGCCAATCAATCATCCCCGGCGCGGGGAAAGCAACGGAGTCACCTAGTGCAG”, for which the binding signal was 14500 fluorescence intensity (a.u.).

On to “ATAATATAATATATAATCAATCATGAGTGAAACGATGAGACGGAGTCACCTAGTGCAG”, for which the binding signal is 33800 fluorescence intensity (a.u.). To “AAGCTAACTATAAATTAATTGTTTCTCACAAACATATCCTCGGAGTCACCTAGTGCAG” belongs 16400 fluorescence intensity (a.u.). Consider “TTTAATTGTCCAAATTTGTGAAAGTGTGCCAAAATTTGGGCGGAGTCACCTAGTGCAG”, for which the binding signal is 31400 fluorescence intensity (a.u.). For the sequence “CACCATGATTACTCCTAATCATGAACTCCTGTTTCTTGGGCGGAGTCACCTAGTGCAG”, the binding signal is 40500 fluorescence intensity (a.u.).

As to “GAAATACTACTCCTCCAATTGATTGATTCCCTTTCTCCTCCGGAGTCACCTAGTGCAG”, the binding signal is 20500 fluorescence intensity (a.u.).
